Earlier results on one sequence are cited in article PMC12209146 (Cellular and Molecular Life Sciences: CMLS, 2025).

For this data set the following is noted: mass spectrometry, Orbitrap Elite System; cited from earlier work. An excerpt:
[…] . When performing transmission electron microscopy, we observed that Angie 5 disrupted the bacterial cell membranes, contributing to ...

No end group written: not given here.

Regarding KAINTFIHGNKISIKAI [Angie 1], the “Half-life (serum stability)” value is on record as 3.058 min.
